Measured values reported in the supplement of paper PMC12217912.
This is one part of the list. Sequences were assembled here from the parent chain. Inactive controls read about 0.05.

B1: TEV protease; numbered along this chain (parent)
chain: MGESLFKGPRDYNPISSSICHLTNESDGHTTSLYGIGFGPFIITNKHLFRRNNGTLVVQSLHGVFKVKDTTTLQQHLVDGRDMIIIRMPKDFPPFPQKLKFREPQREERICLVTTNFQTKSMSSMVSDTSCTFPSGDGIFWKHWIQTKDGQCGSPLVSTRDGFIVGIHSASNFTNTNNYFTSVPKNFMELLTNQEAQQWVSGWRLNADSVLWGGHKVFMVKPEEPFQPVKEATQL

Variants of: B1
Assay: raw area under fraction-flipped curve 0-4 h after induction (AUC4h, not background-subtracted), DNA-recorder readout of cleavage of the substrate (dimensionless); higher = more cleavage of the substrate by the protease variant
Settings: temperature: 34 °C; time window: 0-4 h after rhamnose induction
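Note: Bxb1 expression induced with 0.2% (w/v) L-rhamnose at OD600 near 0.5, cultures sampled hourly, flipped fraction per protease–substrate barcode pair counted by paired-end Illumina sequencing.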

Variant	area with substrate ENLYFQH	area with substrate ENLYFQI	area with substrate ENLYFQK	area with substrate ENLYFQM	area with substrate ENLYFQR	area with substrate ENLYFQS	area with substrate ENLYFQT	area with substrate ENLYFQV	area with substrate ENLYFQW	area with substrate ENLYFQN
W199S	0.0695	0.0546	0.0536	0.0574	0.0527	0.0632	0.0622	–	–	–
W199Y	0.0621	0.0589	–	–	0.0517	0.0786	–	0.0632	0.0672	–
S209Y	0.0826	–	–	–	–	0.125	0.0748	–	–	0.0775
L211T	0.0768	–	0.0823	–	–	0.119	0.0531	–	–	–
W212A	0.0771	–	–	–	0.0354	0.0871	0.0589	–	–	–
H215F	0.0592	0.0378	–	–	0.0628	0.0848	–	–	0.0707	–
H29G	–	0.0735	0.0647	–	0.0689	0.107	–	–	–	–
R51H	–	0.0524	–	–	–	0.121	–	–	–	–
R51S	–	0.0509	0.0593	0.0896	–	0.116	–	–	0.055	–
Q74I	–	0.0435	–	0.0684	0.0611	0.0736	0.0742	–	–	0.0766
I84N	–	0.064	0.0519	–	–	0.0606	–	–	–	0.0724
R87D	–	0.048	–	–	–	0.0807	0.0693	–	–	0.0715
F92G	–	0.0658	–	–	–	0.0667	–	–	–	–
Q97Y	–	0.0488	–	–	–	0.0991	–	–	0.0384	0.0759
L99I	–	0.0585	–	–	0.0548	0.0904	–	–	–	–
N116T	–	0.0763	–	–	–	0.108	–	–	–	0.07
Q118L	–	0.057	0.0868	–	–	0.106	–	–	–	–
T119R	–	0.0353	–	–	–	0.0972	–	–	–	–
C131F	–	0.0434	–	–	–	0.139	–	–	–	–
G138P	–	0.0506	–	–	–	0.0888	–	–	–	0.0684
G162V	–	0.061	–	–	–	0.0714	–	–	–	0.0335

Variant	area with substrate ENLYFQH	area with substrate ENLYFQI	area with substrate ENLYFQK	area with substrate ENLYFQM	area with substrate ENLYFQR	area with substrate ENLYFQS	area with substrate ENLYFQT	area with substrate ENLYFQV	area with substrate ENLYFQW	area with substrate ENLYFQN
A170F	–	0.0535	–	–	–	0.0565	–	–	–	–
S171I	–	0.0486	–	0.0619	–	0.0668	–	–	–	–
Y179D	–	0.0486	0.0555	–	–	0.0574	0.0676	–	–	0.0493
T181E	–	0.0518	0.0694	–	0.0612	0.0622	0.07	–	–	0.0498
S182M	–	0.0254	–	–	–	0.0716	–	–	–	–
L5T	–	–	0.0919	–	0.057	0.117	–	–	–	–
F6A	–	–	0.064	0.0399	–	0.0836	0.0532	–	–	0.0885
T119C	–	–	0.0583	–	–	0.0957	–	0.0839	–	–
C131W	–	–	0.0558	–	–	0.0905	–	–	0.06	0.0697
D137H	–	–	0.0651	0.0916	0.0658	0.0976	–	–	–	0.0744
G138Y	–	–	0.0643	–	–	0.0975	–	0.0521	0.0541	–
F163D	–	–	0.0594	0.0603	–	0.0932	–	–	–	–
N172A	–	–	0.0648	–	0.0588	0.0656	–	–	–	0.0697
N175S	–	–	0.0666	–	–	0.0793	–	0.0308	–	0.0605
L211I	–	–	0.0543	–	–	0.0964	0.0667	–	–	–
P93K	–	–	–	–	0.0666	0.112	–	–	–	–
Q97R	–	–	–	–	–	0.0898	–	–	–	–
T129H	–	–	–	–	–	0.0917	–	–	–	–
C131H	–	–	–	–	–	0.158	–	–	–	–
G138A	–	–	–	–	–	0.0919	0.0553	–	–	–
N178M	–	–	–	0.111	–	0.154	–	–	–	0.0908

Variant	area with substrate ENLYFQH	area with substrate ENLYFQI	area with substrate ENLYFQK	area with substrate ENLYFQM	area with substrate ENLYFQR	area with substrate ENLYFQS	area with substrate ENLYFQT	area with substrate ENLYFQV	area with substrate ENLYFQW	area with substrate ENLYFQN
E189Y	–	–	–	–	0.0296	0.112	–	–	0.0618	–
N206P	–	–	–	–	–	0.114	0.114	–	0.0335	0.0656
G214F	–	–	–	0.0719	–	0.0694	0.0632	0.0392	–	0.0484
P228Y	–	–	–	–	0.0692	0.0984	0.0752	–	0.0593	0.0438
G153S	–	–	–	0.0615	–	0.0624	–	0.0578	0.0584	–
F163P	–	–	–	0.0534	–	0.0555	–	–	–	0.0634
P9N	–	–	–	–	–	0.114	0.0689	–	–	0.0746
D91M	–	–	–	–	–	0.0979	0.0744	–	–	0.0766
Q97G	–	–	–	–	–	0.109	–	–	–	0.0704
C131E	–	–	–	–	–	0.115	–	0.052	–	0.0912
I164V	–	–	–	–	0.0613	0.109	–	–	0.0871	0.0836
E223D	–	–	–	–	–	0.107	0.078	0.0657	–	0.0881
K7W	–	–	–	–	–	0.0994	–	–	–	–
T174I	–	–	–	–	–	0.0808	–	–	–	–
L99H	–	–	–	–	–	0.115	–	–	–	–
M1I	–	–	–	–	0.0666	0.0684	–	–	–	–
F65V	–	–	–	–	0.0609	0.0895	–	–	–	–
G138T	–	–	–	–	0.0545	0.0993	0.0638	–	–	–
F140S	–	–	–	–	0.0695	0.0612	–	0.025	–	–
N178R	–	–	–	–	0.0692	0.108	0.0601	–	–	–
G35I	–	–	–	–	–	0.0503	–	–	–	–

Variant	area with substrate ENLYFQH	area with substrate ENLYFQI	area with substrate ENLYFQK	area with substrate ENLYFQM	area with substrate ENLYFQR	area with substrate ENLYFQS	area with substrate ENLYFQT	area with substrate ENLYFQV	area with substrate ENLYFQW	area with substrate ENLYFQN
F38E	–	–	–	–	–	0.0653	–	–	–	–
K90M	–	–	–	–	–	0.119	–	–	0.0563	–
Q97T	–	–	–	–	–	0.106	0.0666	–	–	–
R102N	–	–	–	–	–	0.0623	–	–	–	–
T119W	–	–	–	–	–	0.0976	–	–	–	–
C131Q	–	–	–	–	–	0.107	–	–	–	–
F163S	–	–	–	–	–	0.105	–	–	–	–
N172L	–	–	–	–	–	0.0536	–	–	–	–
N172M	–	–	–	–	–	0.0525	–	–	–	–
N172W	–	–	–	–	–	0.0793	–	–	–	–
N178C	–	–	–	–	–	0.0946	–	–	0.0629	–
T181C	–	–	–	–	–	0.117	–	–	–	–
N186R	–	–	–	–	–	0.107	–	–	–	–
L190F	–	–	–	–	–	0.0854	–	–	0.0544	–
N193M	–	–	–	–	–	0.0695	–	–	–	–
L211D	–	–	–	–	–	0.124	–	–	–	–
E223A	–	–	–	–	–	0.0949	–	–	–	–
Q227A	–	–	–	–	–	0.104	–	–	–	–

Same assay, conditions: temperature: 34 °C; time window: 0-4 h after rhamnose induction

Variant	area with substrate ENLYFQY	area with substrate ENLYFQL	area with substrate ENLYFQP	area with substrate ENLYFQQ
S209Y	0.0996	–	–	–
W212A	–	0.0571	–	–
H215F	0.0603	0.0608	–	–
H29G	0.111	–	–	–
R51H	–	0.0365	–	–
R51S	0.0864	–	–	–
Q74I	–	0.0599	0.0506	–
R87D	–	0.0598	–	–
L99I	–	–	0.0742	–
N116T	–	–	0.0561	–
G162V	0.0632	–	–	–
A170F	–	0.0398	–	–
Y179D	0.0617	0.0526	–	0.0583
T181E	–	0.0694	0.0648	0.0657
L5T	0.077	0.0325	0.03	–
C131W	–	0.0411	–	–
D137H	–	0.0768	–	–
G138Y	–	0.0522	0.0718	0.0602
F163D	–	0.0369	–	–
N175S	–	0.0545	–	–

Variant	area with substrate ENLYFQY	area with substrate ENLYFQL	area with substrate ENLYFQP	area with substrate ENLYFQQ
L211I	–	0.0458	–	–
P93K	–	0.05	–	–
Q97R	–	0.0605	–	–
T129H	–	0.0586	–	–
C131H	–	0.0199	–	–
G138A	–	0.0585	–	–
N178M	–	0.065	–	–
E189Y	0.0553	0.0304	0.0684	0.117
N206P	–	0.0732	–	–
G214F	–	0.066	–	–
P228Y	0.0668	0.0596	0.0641	–
G153S	–	–	–	0.0451
P9N	0.0879	–	0.0443	0.08
C131E	–	–	–	0.056
K7W	–	–	0.0704	–
T174I	–	–	0.0644	–
L99H	–	–	–	0.0716
K90M	0.0877	–	–	–
T181C	0.0929	–	–	–
